# Results taken from patent publication US11618753B2 (priority 2018, dated 2023).
# Tested on: MLKL phosphorylation, HT29-L23 human colorectal adenocarcinoma cells
# Experiment: cells
# Conditions: read-out: pMLKL HCS Cell Assay (IC50, uM)
row,SMILES,IC50
1,"COc1ncc(-c2cc(CN3CCC(F)(F)CC3)c3c(N)ncnn23)cc1C(=O)N[C@@H]1CN(C(=O)[C@H]2CC2(F)F)C[C@@H]1F [Example 1560, 5-{4-amino-5-[(4,4-difluoropiperidin-1-yl)methyl]pyrrolo[2,1-f][1,2,4]triazin-7-yl}-N-[(3R,4S)-1-[(1R)-2,2-difluorocyclopropanecarbonyl]-4-fluoropyrrolidin-3-yl]-2-methoxypyridine-3-carboxamide]",0.00093 µM
2,"Cc1cc(F)c(-c2cc(C(F)(F)F)c3c(N)ncnn23)cc1C(=O)N[C@@H]1CN(C(=O)[C@@](C)(O)C(F)(F)F)C[C@@H]1F [Example 414, 5-[4-amino-5-(trifluoromethyl)pyrrolo[2,1-f][1,2,4]triazin-7-yl]-4-fluoro-N-[(3R,4S)-4-fluoro-1-[(2R)-3,3,3-trifluoro-2-hydroxy-2-methylpropanoyl]pyrrolidin-3-yl]-2-methylbenzamide]",0.011 µM
3,"COc1ncc(-c2cc(C(F)(F)F)c3c(N)ncnn23)cc1C(=O)Nc1cn(CCc2ccccc2)cn1 [Example 1784, 5-(4-amino-5-(trifluoromethyl)pyrrolo[2,1-f][1,2,4]triazin-7-yl)-2-methoxy-N-(1-phenethyl-1H-imidazol-4-yl)nicotinamide]",0.049 µM
4,"COc1ncc(-c2cc(C(F)(F)F)c3c(N)ncnn23)cc1C(=O)Nc1ccn(Cc2ccccc2)n1 [Example 1725, 5-(4-amino-5-(trifluoromethyl)pyrrolo[2,1-f][1,2,4]triazin-7-yl)-N-(1-benzyl-1H-pyrazol-3-yl)-2-methoxynicotinamide]",0.02 µM

# Tested on: MLKL phosphorylation, HT29-L23 human colorectal adenocarcinoma cells
# Experiment: not given
# Conditions: read-out: pMLKL HCS Cell Assay (IC50)
row,SMILES,IC50
1,"COc1ncc(-c2cc(C(F)(F)F)c3c(N)ncnn23)cc1C(=O)N[C@@H]1CN(C(C)c2cccc(C#N)c2)C[C@@H]1F (single isomer, unassigned) [Example 434]",24 nM
2,"COc1ncc(-c2cc(C(F)(F)F)c3c(N)ncnn23)cc1C(=O)N[C@@H]1CN(C(C)c2ccncc2)C[C@@H]1F (single isomer, unassigned) [Example 439]",11 nM
3,"COc1ncc(-c2cc(C(F)(F)F)c3c(N)ncnn23)cc1C(=O)N[C@@H]1CN(C(C)c2ccncc2F)C[C@@H]1F (single isomer, unassigned) [Example 455]",27 nM
4,"Cc1ncc(-c2cc(C(F)(F)F)c3c(N)ncnn23)cc1C(=O)NC1CN(C(=O)C2CCC(F)CC2)C[C@@H]1F (stereo in doubt) [Example 360, 5-[4-amino-5-(trifluoromethyl)pyrrolo [2,1-f][1,2,4]triazin-7-yl]-N-[4-fluoro-1-(4-fluorocyclohexanecarbonyl)pyrrolidin-3-yl]-2-methylpyridine-3-carboxamide]",25 nM
5,"COc1ncc(-c2cc(C(F)(F)F)c3c(N)ncnn23)cc1C(=O)N[C@@H]1CN(C2CCCC2C)C[C@@H]1F (stereo partly drawn) [Example 1378, 5-[4-amino-5-(trifluoromethyl)-pyrrolo[2,1-f][1,2,4]triazin-7-yl]-N-[(3R,4S)-4-fluoro-1-(2-methylcyclopentyl)pyrrolidin-3-yl]-2-methoxypyridine-3-carboxamide]",17 nM
6,"COc1ncc(-c2cc(C(F)(F)F)c3c(N)ncnn23)cc1C(=O)N[C@@H]1CN(C(C)c2cccc(C#N)c2)C[C@@H]1F (single isomer, unassigned) [Example 435]",6 nM
7,"CCC(O)(CN1C[C@H](F)[C@H](NC(=O)c2cc(-c3cc(C(F)(F)F)c4c(N)ncnn34)cnc2OC)C1)C(F)(F)F (stereo partly drawn) [Example 1822, 5-(4-amino-5-(trifluoromethyl)pyrrolo[2,1-f][1,2,4]triazin-7-yl)-N-((3R,4S)-4-fluoro-1-(2-hydroxy-2-(trifluoromethyl)butyl)pyrrolidin-3-yl)-2-methoxynicotinamide]",9.4 nM
8,"CCc1c(F)cc(-c2cc(C(F)(F)F)c3c(N)ncnn23)cc1C(=O)N[C@@H]1CN(C(=O)C2CC(F)C2)C[C@@H]1F (stereo partly drawn) [Example 656, 5-[4-amino-5-(trifluoromethyl)pyrrolo[2,1-f][1,2,4]triazin-7-yl]-2-ethyl-3-fluoro-N-[(3R,4S)-4-fluoro-1-(3-fluorocyclobutanecarbonyl)pyrrolidin-3-yl]benzamide]",3 nM
9,"CC(C(=O)N1C[C@H](F)[C@H](NC(=O)c2cc(-c3cc(C(F)(F)F)c4c(N)ncnn34)cc(F)c2Cl)C1)C(F)(F)F (single isomer, unassigned) [Example 1329]",3.7 nM
10,"COc1ncc(-c2cc(C(F)(F)F)c3c(N)ncnn23)cc1C(=O)N[C@@H]1CN(C(C)c2cncs2)C[C@@H]1F (single isomer, unassigned) [Example 444]",28 nM
11,"Nc1ncnn2c(-c3ccc(F)c(C(=O)N[C@@H]4CN(C(=O)C5CC(F)C5)C[C@@H]4F)c3F)cc(C(F)(F)F)c12 (stereo partly drawn) [Example 724, 3-[4-amino-5-(trifluoromethyl)pyrrolo[2,1-f][1,2,4]triazin-7-yl]-2,6-difluoro-N-[(3R,4S)-4-fluoro-1-(3-fluorocyclobutanecarbonyl)pyrrolidin-3-yl]benzamide]",213 nM
12,"CCOc1ccc(-c2cc(C(F)(F)F)c3c(N)ncnn23)cc1C(=O)N[C@@H]1CN(C(=O)C2CC(F)C2)C[C@@H]1F (stereo partly drawn) [Example 1115, 5-[4-amino-5-(trifluoromethyl)pyrrolo[2,1-f][1,2,4]triazin-7-yl]-2-ethoxy-N-[(3R,4S)-4-fluoro-1-(3-fluorocyclobutanecarbonyl)pyrrolidin-3-yl]benzamide]",25 nM
13,"COc1ncc(-c2cc(C(F)(F)F)c3c(N)ncnn23)cc1C(=O)NCCC(O)c1ccc(F)c(F)c1 (stereo not shown) [Example 135, 5-[4-amino-5-(trifluoromethyl)pyrrolo[2,1-f][1,2,4]triazin-7-yl]-N-[3-(3,4-difluorophenyl)-3-hydroxypropyl]-2-methoxypyridine-3-carboxamide]",17 nM
14,"Nc1ncnn2c(-c3cccc(C(=O)N[C@@H]4CN(C(=O)C5CCC(F)CC5)C[C@@H]4F)c3)cc(C(F)(F)F)c12 (stereo partly drawn) [Example 103, 3-[4-amino-5-(trifluoromethyl)pyrrolo[2,1-f][1,2,4]triazin-7-yl]-N-[(3R,4S)-4-fluoro-1-(4-fluorocyclohexanecarbonyl)pyrrolidin-3-yl]benzamide]",50 nM
15,"COc1ncc(-c2cc(C(F)(F)F)c3c(N)ncnn23)cc1C(=O)NCC(C)(O)C(OC)c1ccc(F)cc1 (single isomer, unassigned) [Example 1754, 5-(4-amino-5-(trifluoromethyl)pyrrolo[2,1-f][1,2,4]triazin-7-yl)-N-(3-(4-fluorophenyl)-2-hydroxy-3-methoxy-2-methylpropyl)-2-methoxynicotinamide]",27 nM
16,"Nc1ncnn2c(-c3cccc(C(=O)N[C@@H]4CN(C(=O)C5CCC(F)CC5)C[C@@H]4F)c3)cc(C(F)(F)F)c12 (stereo partly drawn) [Example 102, 3-[4-amino-5-(trifluoromethyl)pyrrolo[2,1-f][1,2,4]triazin-7-yl]-N-[(3R,4S)-4-fluoro-1-(4-fluorocyclohexanecarbonyl)pyrrolidin-3-yl]benzamide]",123 nM
17,"COc1ncc(-c2cc(C(F)(F)F)c3c(N)ncnn23)cc1C(=O)NC1CN(C(C)C(C)O)C[C@@H]1F (stereo partly drawn) [Example 1409, 5-[4-amino-5-(trifluoromethyl)-pyrrolo[2,1-f][1,2,4]triazin-7-yl]-N-[(3R,4S)-4-fluoro-1-(3-hydroxybutan-2-yl)pyrrolidin-3-yl]-2-methoxypyridine-3-carboxamide]",224 nM
18,"COc1ncc(-c2cc(C(F)(F)F)c3c(N)ncnn23)cc1C(=O)NC1CN(C(C)c2cc(F)cc(F)c2)C[C@@H]1F (stereo partly drawn) [Example 458, 5-[4-amino-5-(trifluoromethyl)pyrrolo[2,1-f][1,2,4]triazin-7-yl]-N-[(3R,4S)-1-[1-(3,5-difluorophenyl)ethyl] 1-4-fluoropyrrolidin-3-yl]-2-methoxypyridine-3-carboxamide]",5.8 nM
19,"COc1ncc(-c2cc(C(F)(F)F)c3c(N)ncnn23)cc1C(=O)N1CCCC(C(O)c2ccc(F)cc2)C1 (single isomer, unassigned) [Example 1731, (5-(4-amino-5-(trifluoromethyl)pyrrolo[2,1-f][1,2,4]triazin-7-yl)-2-methoxypyridin-3-yl)(3-((4-fluorophenyl)(hydroxy)methyl)piperidin-1-yl)methanone]",28 nM
20,"Nc1ncnn2c(-c3ccc(F)c(C(=O)N[C@@H]4CN(C(=O)C5CC(F)C5)C[C@@H]4F)c3)cc(C(F)(F)F)c12 (stereo partly drawn) [Example 253, 5-[4-amino-5-(trifluoromethyl)pyrrolo[2,1-f][1,2,4]triazin-7-yl]-2-fluoro-N-[(3R,4S)-4-fluoro-1-(3-fluorocyclobutanecarbonyl)pyrrolidin-3-yl]benzamide]",22 nM
21,"COc1ncc(-c2cc(C(F)(F)F)c3c(N)ncnn23)cc1C(=O)NC1CN(C2CCCC2C(O)C(F)(F)F)C[C@@H]1F (stereo partly drawn) [Example 1376, 5-[4-amino-5-(trifluoromethyl)-pyrrolo[2,1-f][1,2,4]triazin-7-yl]-N-[(3R,4S)-4-fluoro-1-[2-(2,2,2-trifluoro-1-hydroxy-ethyl)cyclopentyl]pyrrolidin-3-yl]-2-methoxypyridine-3-carboxamide]",37 nM
22,"COc1ccccc1C(C)N1CC(NC(=O)c2cc(-c3cc(C(F)(F)F)c4c(N)ncnn34)cnc2OC)[C@@H](F)C1 (stereo partly drawn) [Example 1370, 5-[4-amino-5-(trifluoromethyl)-pyrrolo[2,1-f][1,2,4]triazin-7-yl]-N-[(3R,4S)-4-fluoro-1-[1-(2-methoxyphenyl)ethyl]-pyrrolidin-3-yl]-2-methoxy-pyridine-3-carboxamide]",122 nM
23,"COc1ncc(-c2cc(C(F)(F)F)c3c(N)ncnn23)cc1C(=O)NC1CN(C(C)C2CCC(F)(F)C2)C[C@@H]1F (stereo partly drawn) [Example 1385, 5-[4-amino-5-(trifluoromethyl)-pyrrolo[2,1-f][1,2,4]triazin-7-yl]-N-[(3R,4S)-1-[1-(3,3-difluorocyclopentyl)ethyl]-4-fluoropyrrolidin-3-yl]-2-methoxypyridine-3-carbox-amide]",16 nM
24,"COc1ncc(-c2cc(C(F)(F)F)c3c(N)ncnn23)cc1C(=O)N[C@@H]1CN(C(C)c2ccc(F)cc2)C[C@@H]1F (single isomer, unassigned) [Example 463]",4.6 nM
